{"source": "paper PMC4336329", "about": "(PLoS ONE, 2015)", "note": "In all, about 310,000 compounds went through this assay and about 14,000 (4.5%) showed an effect of 50% or more. Effects have a minus sign here. Some of the results follow. Where a SMILES comes first, the peptide text is derived from it. [ ]: non-standard residue; d: D form. The star is where a group is joined. ξ: configuration not given here. Cbz = O=C(OCc1ccccc1)*; ξA = CC(N)C(=O)O;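 note: peak tail current of the secondary pulse compared with the same well before compound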"}
{"target": "human ether-à-go-go-related gene (hERG) potassium channel (human, UniProt Q12809)", "sequence (Q12809 whole entry, looked up)": "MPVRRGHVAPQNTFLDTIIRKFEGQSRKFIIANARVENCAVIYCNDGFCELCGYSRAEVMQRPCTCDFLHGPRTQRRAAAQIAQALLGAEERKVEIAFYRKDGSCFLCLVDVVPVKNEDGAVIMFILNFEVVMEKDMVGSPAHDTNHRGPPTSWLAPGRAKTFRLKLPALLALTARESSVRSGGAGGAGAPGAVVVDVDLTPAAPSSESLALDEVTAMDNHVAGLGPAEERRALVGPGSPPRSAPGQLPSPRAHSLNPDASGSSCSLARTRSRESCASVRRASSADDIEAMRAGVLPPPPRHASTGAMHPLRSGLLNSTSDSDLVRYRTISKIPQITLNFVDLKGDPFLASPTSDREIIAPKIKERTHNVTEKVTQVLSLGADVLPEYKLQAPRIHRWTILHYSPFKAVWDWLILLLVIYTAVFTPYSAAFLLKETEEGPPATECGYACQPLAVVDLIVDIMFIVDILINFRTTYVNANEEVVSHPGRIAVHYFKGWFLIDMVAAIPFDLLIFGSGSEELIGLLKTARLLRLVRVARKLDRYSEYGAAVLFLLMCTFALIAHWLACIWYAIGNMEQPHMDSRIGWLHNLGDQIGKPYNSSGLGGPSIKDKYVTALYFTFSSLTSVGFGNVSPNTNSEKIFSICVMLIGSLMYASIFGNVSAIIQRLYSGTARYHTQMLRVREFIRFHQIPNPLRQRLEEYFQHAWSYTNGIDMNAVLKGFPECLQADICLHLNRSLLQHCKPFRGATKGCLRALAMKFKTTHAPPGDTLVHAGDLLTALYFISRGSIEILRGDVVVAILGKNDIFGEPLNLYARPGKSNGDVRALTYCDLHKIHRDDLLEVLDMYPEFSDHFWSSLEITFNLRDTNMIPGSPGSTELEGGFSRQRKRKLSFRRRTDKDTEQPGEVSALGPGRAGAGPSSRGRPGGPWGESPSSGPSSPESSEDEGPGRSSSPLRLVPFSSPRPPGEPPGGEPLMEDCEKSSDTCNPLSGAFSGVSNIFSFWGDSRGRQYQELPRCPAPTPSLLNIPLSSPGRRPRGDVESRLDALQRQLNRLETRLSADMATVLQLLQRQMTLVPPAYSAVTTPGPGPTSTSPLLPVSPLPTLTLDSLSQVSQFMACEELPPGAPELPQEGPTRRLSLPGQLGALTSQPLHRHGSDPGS", "experiment": "primary screen, population patch clamp on CHO cells stably expressing hERG", "units": {"hERG current change (%, negative = inhibition) at 10uM": "%"}}
{"smiles": "COc1ccc(NC(=O)c2ccc(COCC(F)(F)F)cc2)cc1OC", "hERG current change (%, negative = inhibition) at 10uM": 6.9}
{"smiles": "CN(CC(=O)NCCC1=CCCCC1)S(=O)(=O)c1ccc2c(c1)c(=O)n(C)c(=O)n2C", "hERG current change (%, negative = inhibition) at 10uM": -64.9}
{"smiles": "Cc1c(S(=O)(=O)N2CCOCC2)c(=O)n(C)c(=O)n1C", "hERG current change (%, negative = inhibition) at 10uM": -0.466}
{"smiles": "CC(/C=N/NC(=O)Cc1cc(=O)[nH][nH]1)=C\\c1ccccc1", "hERG current change (%, negative = inhibition) at 10uM": 10.5}
{"smiles": "c1ccc(CC2CCN(c3nc4ccccc4n4nnnc34)CC2)cc1", "hERG current change (%, negative = inhibition) at 10uM": 8.23}
{"smiles": "Cc1onc(-c2ccccc2)c1C(=O)N1CCCC(C(F)(F)F)C1", "note": "(stereo not drawn)", "hERG current change (%, negative = inhibition) at 10uM": -17.7}
{"smiles": "O=C(C1CCC(=O)N1Cc1cccnc1)N1CCN(c2ccc(F)cc2)CC1", "note": "(stereo not drawn)", "hERG current change (%, negative = inhibition) at 10uM": -2.7}
{"smiles": "Cc1ccc(S(C)(=O)=O)cc1C(=O)OCC(=O)N(Cc1ccccc1)Cc1ccccc1", "hERG current change (%, negative = inhibition) at 10uM": -13.7}
{"smiles": "CC1CC1C(=O)Nc1cc(S(=O)(=O)N2CCOCC2)ccc1N1CCCC1", "note": "(stereo not drawn)", "hERG current change (%, negative = inhibition) at 10uM": -12.8}
{"smiles": "O=C(CN1C(=O)NC2(CCCC2)C1=O)OCc1ccc(Br)cc1", "hERG current change (%, negative = inhibition) at 10uM": 8.87}
{"smiles": "Cc1ccc(/C=C/C(=O)NC(=S)Nc2ccccc2C(=O)NC2CCCCC2)cc1", "hERG current change (%, negative = inhibition) at 10uM": 16.8}
{"smiles": "CCCCc1ccc(NC(=S)NCCc2ccc(F)cc2)cc1", "hERG current change (%, negative = inhibition) at 10uM": -7.58}
{"smiles": "CC(Oc1cc2oc(=O)c3c(c2cc1Cl)CCC3)C(=O)NCCCn1ccnc1", "note": "(stereo not drawn)", "hERG current change (%, negative = inhibition) at 10uM": -30.7}
{"smiles": "CCCCCCN(C(=O)CCCCCN1C(=O)NC(c2ccc(-c3ccccc3)cc2)C(C(=O)OCc2ccccc2)=C1C)C(C(=O)NCCCC)c1ccc(OCC(=O)OC)cc1", "note": "(stereo not drawn)", "hERG current change (%, negative = inhibition) at 10uM": 18.9}
{"smiles": "COc1ccc(-c2cc(C(=O)NCC3CCCO3)c3cc(C(C)C)ccc3n2)cc1", "note": "(stereo not drawn)", "hERG current change (%, negative = inhibition) at 10uM": 7.63}
{"smiles": "COc1ccccc1C(=O)N(CCN(C)C)c1nc2cc(C)cc(C)c2s1.Cl", "hERG current change (%, negative = inhibition) at 10uM": -82}
{"smiles": "COCCNc1ncnc2c1cnn2-c1ccc(Cl)cc1", "hERG current change (%, negative = inhibition) at 10uM": -19}
{"smiles": "N#Cc1cn(OCc2ccccc2)c(=O)[nH]c1=O", "hERG current change (%, negative = inhibition) at 10uM": 16.5}
{"smiles": "O=C(COC(=O)COc1ccccc1)NC12CC3CC(CC(C3)C1)C2", "hERG current change (%, negative = inhibition) at 10uM": 0.601}
{"smiles": "Cc1nc2ccc(S(=O)(=O)NCC(=O)NC(C)c3ccccc3)cc2s1", "note": "(stereo not drawn)", "hERG current change (%, negative = inhibition) at 10uM": 21.1}
{"smiles": "Clc1ccc(-c2ccc(-c3nn4c(-c5ccco5)nnc4s3)o2)cc1", "hERG current change (%, negative = inhibition) at 10uM": 0.523}
{"smiles": "CCCn1c(CCC(=O)Nc2ccccc2Cc2ccccc2)nc2cc(S(=O)(=O)N3CCOCC3)ccc21", "hERG current change (%, negative = inhibition) at 10uM": -8.86}
{"smiles": "Cc1cccn2c(=O)c3cc(C(=O)NCC4CCCO4)c(=N)n(C4CCCCC4)c3nc12", "note": "(stereo not drawn)", "hERG current change (%, negative = inhibition) at 10uM": -77.3}
{"smiles": "Br.Fc1cccc(CNCC2CCCO2)c1", "note": "(stereo not drawn)", "hERG current change (%, negative = inhibition) at 10uM": 19.2}
{"smiles": "Cc1cccn2c(=O)c3cc(C(=O)NCC4CCCO4)c(=N)n(CCc4ccccc4)c3nc12", "note": "(stereo not drawn)", "hERG current change (%, negative = inhibition) at 10uM": -76.7}
{"smiles": "COc1ccc(/C=C/C(=O)c2ccc[nH]2)c(OC)c1OC", "hERG current change (%, negative = inhibition) at 10uM": -4.89}
{"smiles": "OC(CNCC1COc2ccccc2O1)COc1ccccc1F", "note": "(stereo not drawn)", "hERG current change (%, negative = inhibition) at 10uM": 1.11}
{"smiles": "Cc1cc(C)c(NC(=O)c2ccc(S(=O)(=O)N3CCOCC3)cc2)c(C)c1", "hERG current change (%, negative = inhibition) at 10uM": 3.06}
{"smiles": "Cc1cccc(N(CC(=O)NC2CCCC2)C(=O)c2csnn2)c1C", "hERG current change (%, negative = inhibition) at 10uM": 19.5}
{"smiles": "CCc1nnc(NS(=O)(=O)c2ccc(NC(=O)/C=C/c3ccccc3Cl)cc2)s1", "hERG current change (%, negative = inhibition) at 10uM": -9.83}
{"smiles": "Cl.O=C1CC2(CCCC2)CC(=O)N1CCCCN1CCN(c2ncccn2)CC1", "hERG current change (%, negative = inhibition) at 10uM": -35.9}
{"smiles": "Cc1ccc(CS(=O)(=O)Cc2ccc(C(=O)NCc3ccco3)o2)cc1", "hERG current change (%, negative = inhibition) at 10uM": -32.6}
{"smiles": "O=C(Nc1ccc2c(c1)CCC2)c1cc(S(=O)(=O)N2CCN(c3ccccc3)CC2)ccc1Cl", "hERG current change (%, negative = inhibition) at 10uM": -13.9}
{"smiles": "Cc1c(NC(=O)CSc2ccc(Cl)cc2)cccc1-c1nc2cc(Cl)ccc2o1", "hERG current change (%, negative = inhibition) at 10uM": 4.73}
{"smiles": "CCOC(=O)N1CCN(CC(O)COc2ccc(-c3ccccc3)cc2)CC1.Cl", "note": "(stereo not drawn)", "hERG current change (%, negative = inhibition) at 10uM": -60.3}
{"smiles": "CCOC(=O)C1CCCN(Cc2cccc(Cl)c2)C1", "note": "(stereo not drawn)", "hERG current change (%, negative = inhibition) at 10uM": -8.02}
{"smiles": "O=C(O)CN(c1ccc2c(c1)OCCO2)S(=O)(=O)c1ccccc1", "hERG current change (%, negative = inhibition) at 10uM": -0.421}
{"smiles": "COc1cccc(OC)c1NC(=O)CN(C)S(=O)(=O)c1ccc2c(c1)OCCO2", "hERG current change (%, negative = inhibition) at 10uM": -5.31}
{"smiles": "CC(=O)Nc1ccc(NC(=O)CN(c2ccc(F)cc2)S(=O)(=O)c2ccc3c(c2)OCCO3)cc1", "hERG current change (%, negative = inhibition) at 10uM": 15.3}
{"smiles": "Cc1ccc(NC(=O)c2cc(NC(=O)/C=C\\C(=O)O)ccc2N2CCCCC2)cc1", "hERG current change (%, negative = inhibition) at 10uM": -3.11}
{"smiles": "CCc1ccccc1NC(=S)N(CCN(C)C)Cc1cccs1", "hERG current change (%, negative = inhibition) at 10uM": -22.4}
{"smiles": "Cc1cc(OCC(=O)NNC(=S)NCC2CCCO2)cc(C)c1Cl", "note": "(stereo not drawn)", "hERG current change (%, negative = inhibition) at 10uM": 13.6}
{"smiles": "Cc1ccc(OCc2nnc(SCC(=O)O)n2N)cc1", "hERG current change (%, negative = inhibition) at 10uM": 22.2}
{"smiles": "N#Cc1ccc(Oc2ccc(/C=N/O)cn2)cc1", "hERG current change (%, negative = inhibition) at 10uM": -73.7}
{"smiles": "CCOC(=O)C1=C(C)Nc2ccccc2N=C1NC(=O)Cc1ccc(OC)cc1", "hERG current change (%, negative = inhibition) at 10uM": 13.9}
{"smiles": "COc1ccccc1CC(=O)N1CCCc2ccccc21", "hERG current change (%, negative = inhibition) at 10uM": 0.493}
{"smiles": "NC(=O)c1nsc(C(=O)N(c2ccccc2F)C(C(=O)NCc2ccccc2)c2ccc(O)cc2)c1N", "note": "(stereo not drawn)", "hERG current change (%, negative = inhibition) at 10uM": -7.18}
{"smiles": "O=C(c1ccco1)N1CCN(Cc2cc(=O)c(OCc3cccc(F)c3)co2)CC1", "hERG current change (%, negative = inhibition) at 10uM": -76.4}
{"smiles": "CCC(=O)NC(c1ccccc1)c1c(OC(C)=O)ccc2ccccc12", "note": "(stereo not drawn)", "hERG current change (%, negative = inhibition) at 10uM": -13.4}
{"smiles": "CC(=O)CSc1nnc(CSc2ncccn2)n1C1CCCCC1", "hERG current change (%, negative = inhibition) at 10uM": -18.8}
{"smiles": "Cc1cccc(C)c1N1C(=O)CN(Cc2ccccc2)C1=S", "hERG current change (%, negative = inhibition) at 10uM": -28.4}
{"smiles": "COC(=O)CNC(=O)C(C)NC(=O)CNC(=O)OCc1ccccc1", "note": "(stereo not drawn) (Cbz-Gly-[ξA]-Gly-OMe)", "hERG current change (%, negative = inhibition) at 10uM": -1.25}
{"smiles": "C/C(=N\\Nc1ccc(Cl)c(C(=O)O)c1)c1cccc2ccccc12", "hERG current change (%, negative = inhibition) at 10uM": -9.41}
{"smiles": "O=C(NCc1ccccn1)C1CCN(S(=O)(=O)c2cnc[nH]2)CC1", "hERG current change (%, negative = inhibition) at 10uM": 9.99}
